# The list shows a part of the results.
# Legend:
# Experiment in all cases: glycan array binding signal (z-score within array); higher = stronger binding
# Settings in all cases: glycan notation: IUPAC condensed, linker removed; mutation: D325A
# [1] = target: Gal(b1-4)GlcNAc(b1-3)Gal(b1-4)GlcNAc(b1-3)Gal(b1-4)GlcNAc
# Procedure, shortened: (§1)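 Columns mapping to the same glycan were averaged after glycan names were converted to IUPAC-condensed notation. The data come from 3228 arrays in the Consortium for Functional Glycomics database, limited to those with an available protein sequence. Binding is reported as a within-array Z-score averaged across arrays of one protein sequence and across linkers.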
# [2] = target: Gal(b1-4)GlcNAc(b1-3)Gal(b1-4)[Fuc(a1-3)]GlcNAc(b1-3)Gal(b1-4)[Fuc(a1-3)]GlcNAc
# Procedure, shortened: as §1
# [3] = target: Gal(b1-4)GlcNAc(b1-3)GalNAc
# Procedure, shortened: as §1
# [4] = target: Gal(b1-4)GlcNAc(b1-3)[Gal(b1-4)GlcNAc(b1-6)]Gal(b1-4)GlcNAc
# Procedure, shortened: as §1
# [5] = target: Gal(b1-4)GlcNAc(b1-3)[GlcNAc(b1-6)]Gal(b1-4)GlcNAc
# Procedure, shortened: as §1
# [6] = target: Gal(b1-4)GlcNAc(b1-6)Gal(b1-4)GlcNAc
# Procedure, shortened: as §1
# [7] = target: Gal(b1-4)GlcNAc(b1-6)Gal(b1-4)GlcNAc(b1-6)GalNAc
# Procedure, shortened: as §1
# [8] = target: Gal(b1-4)GlcNAc(b1-6)GalNAc
# Procedure, shortened: as §1
# [9] = target: Gal(b1-4)GlcNAc(b1-6)[Gal(b1-3)]GalNAc
# Procedure, shortened: as §1
# Gal3S(b1-3)GalNAc = target: Gal3S(b1-3)GalNAc
# Procedure, shortened: as §1
# Gal3S(b1-3)GlcNAc = target: Gal3S(b1-3)GlcNAc
# Procedure, shortened: as §1
# [10] = target: Gal3S(b1-3)[Fuc(a1-4)]GlcNAc
# Procedure, shortened: as §1
# Gal3S(b1-4)Glc = target: Gal3S(b1-4)Glc
# Procedure, shortened: as §1
# Gal3S(b1-4)Glc6S = target: Gal3S(b1-4)Glc6S
# Procedure, shortened: as §1
# Gal3S(b1-4)GlcNAc = target: Gal3S(b1-4)GlcNAc
# Procedure, shortened: as §1
# Gal3S(b1-4)GlcNAc6S = target: Gal3S(b1-4)GlcNAc6S
# Procedure, shortened: as §1
# [11] = target: Gal3S(b1-4)[Fuc(a1-3)]Glc
# Procedure, shortened: as §1
# Gal3S4S(b1-4)GlcNAc = target: Gal3S4S(b1-4)GlcNAc
# Procedure, shortened: as §1
# Gal3S6S(b1-4)GlcNAc = target: Gal3S6S(b1-4)GlcNAc
# Procedure, shortened: as §1
# Gal3S6S(b1-4)GlcNAc6S = target: Gal3S6S(b1-4)GlcNAc6S
# Procedure, shortened: as §1
# Gal4S(b1-4)GlcNAc = target: Gal4S(b1-4)GlcNAc
# Procedure, shortened: as §1
# Gal4S6S(b1-4)GlcNAc = target: Gal4S6S(b1-4)GlcNAc
# Procedure, shortened: as §1
# Gal6S(b1-4)Glc = target: Gal6S(b1-4)Glc
# Procedure, shortened: as §1
# Gal6S(b1-4)Glc6S = target: Gal6S(b1-4)Glc6S
# Procedure, shortened: as §1
# Gal6S(b1-4)GlcNAc = target: Gal6S(b1-4)GlcNAc
# Procedure, shortened: as §1
# Gal6S(b1-4)GlcNAc6S = target: Gal6S(b1-4)GlcNAc6S
# Procedure, shortened: as §1
# GalNAc(a1-3)Gal = target: GalNAc(a1-3)Gal
# Procedure, shortened: as §1
# GalNAc(a1-3)GalNAc = target: GalNAc(a1-3)GalNAc
# Procedure, shortened: as §1
# GalNAc(b1-3)Gal = target: GalNAc(b1-3)Gal
# Procedure, shortened: as §1
# [12] = target: GalNAc(b1-3)Gal(a1-4)Gal(b1-4)GlcNAc
# Procedure, shortened: as §1
# GalNAc(b1-3)GalNAc = target: GalNAc(b1-3)GalNAc
# Procedure, shortened: as §1
# GalNAc(b1-4)GlcNAc = target: GalNAc(b1-4)GlcNAc
# Procedure, shortened: as §1
# Glc(a1-4)Glc = target: Glc(a1-4)Glc
# Procedure, shortened: as §1
# Glc(a1-6)Glc(a1-6)Glc = target: Glc(a1-6)Glc(a1-6)Glc
# Procedure, shortened: as §1
# Glc(b1-4)Glc = target: Glc(b1-4)Glc
# Procedure, shortened: as §1
# Glc(b1-6)Glc = target: Glc(b1-6)Glc
# Procedure, shortened: as §1
# GlcA(b1-3)Gal = target: GlcA(b1-3)Gal
# Procedure, shortened: as §1
binder,measurement,setting,value
Surfactant Protein D (Human); Neck + Carbohydrate Recognition Domain (NCRD) (Homo sapiens) (protein) MLLFLLSALVLLTQPLGYLEAEMKTYSHRTMPSACTLVMCSSVESGLPGRDRDGREGPRGEKGDPGLPGAAGQAGMPGQAGPVGPKGDNGSVGEPGPKGDTGPSGPPGPPGVPGPAGREGALGKQGNIGPQGKPGPKGEAGPKGEVGAPGMQGSAGARGLAGPKGERGVPGERGVPGNTGAAGSAGAMGPQGSPGARGPPGLKGDKGIPGDKGAKGESGLPDVASLRQQVEALQGQVQHLQAAFSQYKKVELFPNGQSVGEKIFKTAQFVKPFTEAQLLCTQAGGQLASPRSAAENAALQQLVVAKNEAAFLSMTDSKTEGKFTYPTGESLVYSNWAPGEPNDAGGSEDCVEIFTNGKWNDRACGEKRLVVCEF,glycan array binding signal (z-score),[1],-0.267
same,glycan array binding signal (z-score),[2],-0.152
same,glycan array binding signal (z-score),[3],-0.215
same,glycan array binding signal (z-score),[4],-0.271
same,glycan array binding signal (z-score),[5],-0.273
same,glycan array binding signal (z-score),[6],-0.186
same,glycan array binding signal (z-score),[7],-0.247
same,glycan array binding signal (z-score),[8],-0.267
same,glycan array binding signal (z-score),[9],-0.262
same,glycan array binding signal (z-score),Gal3S(b1-3)GalNAc,-0.274
same,glycan array binding signal (z-score),Gal3S(b1-3)GlcNAc,-0.264
same,glycan array binding signal (z-score),[10],-0.181
same,glycan array binding signal (z-score),Gal3S(b1-4)Glc,-0.271
same,glycan array binding signal (z-score),Gal3S(b1-4)Glc6S,-0.266
same,glycan array binding signal (z-score),Gal3S(b1-4)GlcNAc,-0.249
same,glycan array binding signal (z-score),Gal3S(b1-4)GlcNAc6S,-0.261
same,glycan array binding signal (z-score),[11],-0.256
same,glycan array binding signal (z-score),Gal3S4S(b1-4)GlcNAc,-0.263
same,glycan array binding signal (z-score),Gal3S6S(b1-4)GlcNAc,-0.26
same,glycan array binding signal (z-score),Gal3S6S(b1-4)GlcNAc6S,-0.267
same,glycan array binding signal (z-score),Gal4S(b1-4)GlcNAc,-0.264
same,glycan array binding signal (z-score),Gal4S6S(b1-4)GlcNAc,-0.275
same,glycan array binding signal (z-score),Gal6S(b1-4)Glc,-0.245
same,glycan array binding signal (z-score),Gal6S(b1-4)Glc6S,-0.268
same,glycan array binding signal (z-score),Gal6S(b1-4)GlcNAc,-0.262
same,glycan array binding signal (z-score),Gal6S(b1-4)GlcNAc6S,-0.274
same,glycan array binding signal (z-score),GalNAc(a1-3)Gal,-0.273
same,glycan array binding signal (z-score),GalNAc(a1-3)GalNAc,-0.272
same,glycan array binding signal (z-score),GalNAc(b1-3)Gal,-0.234
same,glycan array binding signal (z-score),[12],-0.247
same,glycan array binding signal (z-score),GalNAc(b1-3)GalNAc,-0.273
same,glycan array binding signal (z-score),GalNAc(b1-4)GlcNAc,-0.221
same,glycan array binding signal (z-score),Glc(a1-4)Glc,0.526
same,glycan array binding signal (z-score),Glc(a1-6)Glc(a1-6)Glc,-0.222
same,glycan array binding signal (z-score),Glc(b1-4)Glc,-0.269
same,glycan array binding signal (z-score),Glc(b1-6)Glc,-0.259
same,glycan array binding signal (z-score),GlcA(b1-3)Gal,-0.267

# Source: the supplement of paper PMC8728848
